# Source: the supplement of paper PMC7335073
# Over roughly 4,100 sequences, “relative CpG methylation activity (normalised to average over all NNNCGNNN flanks)” has its median near 0.87; the highest 2% begin near 2.4. This is one part of the list.
# Target: DNMT3A catalytic domain (mouse) (UniProt O88508)
# Test: relative CpG methylation activity (normalised to average over all NNNCGNNN flanks) (relative (1 = mean)); higher = more methylation of the central CpG
# Settings: system: in vitro, murine catalytic domain; CpG state: hemimethylated substrate pool; residues: 608-908
# Method: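 Deep enzymology: a pool of dsDNA substrates with a central CpG flanked by 10 random nucleotides on each side was methylated by the murine DNMT3A or DNMT3B catalytic domain (0.8 mM SAM, 37 °C, 60 min). Methylation was then read out by hairpin ligation, bisulfite conversion and NGS. Values are the average methylation of each NNNCGNNN context (±3 flanks; the outer flanks are random and averaged over), normalised to the overall mean, so 1 = average activity.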
row,Sequence,relative CpG methylation activity
1,GTCCGCAC,2.12
2,AGGCGTAG,0.22
3,GCCCGTGC,0.536
4,CCCCGCAA,0.957
5,CTCCGTGT,0.649
6,GGGCGATT,0.735
7,TCTCGAAA,1.12
8,TTGCGGAT,1.07
9,AGTCGCGG,0.0617
10,AACCGCAC,1.1
11,CACCGAGA,1.08
12,CCACGAAT,1.16
13,AAGCGGGA,0.31
14,CCTCGGTG,0.402
15,ACCCGCAT,1.25
16,GCCCGCCA,1.52
17,CCTCGCCC,2.6
18,GGCCGCCT,1.37
19,ACCCGTCA,1.83
20,GGGCGACC,0.449
21,CGCCGGTG,0.806
22,TCACGCTT,2.19
23,AGGCGCTG,1.08
24,CGGCGCTG,0.699
25,GGTCGTTT,0.435

row,Sequence,relative CpG methylation activity
1,GCCCGTCA,1.74
2,CAGCGCGC,0.345
3,TCGCGACT,0.906
4,TGACGTGT,0.174
5,TTGCGACA,1.26
6,CCCCGTCC,1.92
7,GGCCGCTA,0.66
8,GGTCGTCC,0.756
9,TCTCGCAC,1.41
10,CGACGAAA,0.566
11,GGGCGCGT,0.603
12,ACCCGGTG,0.688
13,GAGCGAGT,0.872
14,ACGCGGAA,1.12
15,CTTCGTGG,0.1
16,CACCGGCA,0.708
17,CTGCGTCA,1.83
18,GCACGCGC,1.41
19,AGGCGGAC,1.06
20,GGTCGGTT,0.189
21,ACCCGATC,1.87
22,GATCGACT,0.213
23,AGTCGCAC,0.68
24,AGCCGCCC,1.75
25,CTCCGGGT,0.933

row,Sequence,relative CpG methylation activity
1,TCACGGAT,1.51
2,CCTCGAAG,0.497
3,CAGCGCTA,0.801
4,GCGCGCGC,0.794
5,ACCCGGCC,1.27
6,GGGCGACT,1.14
7,CTGCGGAT,0.814
8,CATCGTAG,0.475
9,TCCCGAGA,1.02
10,GGACGTTG,0.114
11,AGTCGGCT,0.284
12,GCACGTCG,1.84
13,CAACGCAG,0.487
14,AACCGACC,1.25
15,GGGCGCCC,1.52
16,CGTCGGAG,0.128
17,GAACGTGA,0.396
18,GTCCGTAT,0.84
19,CGTCGATG,0.299
20,GAACGCCT,1.72
21,CCTCGTAC,1.23
22,AGACGCCT,1.38
23,TACCGATG,0.497
24,AACCGCCG,1.43
25,CGCCGTTC,1.07

row,Sequence,relative CpG methylation activity
1,CATCGTAA,0.865
2,AACCGTTA,0.79
3,GTGCGCAG,0.784
4,TACCGGCG,0.675
5,GGCCGGTT,1.04
6,GACCGCAC,0.901
7,ATGCGCCA,1.91
8,AGACGTTC,1.16
9,TAACGGGA,0.531
10,CGGCGATG,0.55
11,TAGCGCAT,0.533
12,TAACGACC,0.765
13,TGACGGGT,0.549
14,AAGCGAAA,0.627
15,GACCGAGG,0.714
16,TGTCGACG,0.577
17,AGCCGCCT,1.57
18,GGACGGAA,0.815
19,TGACGCTG,0.692
20,TAACGTCA,1.11
21,AACCGGCC,1.02
22,TGGCGCCG,0.882
23,AATCGCGT,0.365
24,AATCGGTA,0.267
25,AGTCGCAA,0.584

row,Sequence,relative CpG methylation activity
1,GAGCGCTT,2.07
2,GTTCGTGT,0.329
3,ACACGATA,1.52
4,CAGCGTAA,0.768
5,AAACGTCG,1.24
6,GCACGAAT,0.975
7,CGCCGACC,1.05
8,CCCCGGCT,1.12
9,CTACGGCA,1.99
10,TTTCGTCA,2.15
11,ATGCGTAG,1.23
12,CGGCGAGA,0.491
13,TGCCGGGT,0.724
14,TTCCGCTG,1.68
15,TTACGGCC,2.24
16,ATTCGCTA,1.12
17,GGACGTTC,0.957
18,TACCGAGA,0.628
19,GCGCGGCG,1.01
20,ACTCGCGG,0.302
21,TTTCGAAC,1.14
22,AGTCGATG,0.141
23,GCACGCCA,1.99
24,GCTCGAAA,1.03
25,CAGCGAAG,0.215

row,Sequence,relative CpG methylation activity
1,TCTCGGTC,1.22
2,GCTCGGGC,0.946
3,GGTCGTTG,0.154
4,CTCCGCCC,2.44
5,AACCGTAT,0.755
6,TGCCGCAG,0.533
7,AGGCGACT,0.686
8,CACCGGGT,0.714
9,AGCCGTTA,0.473
10,TTGCGTAT,1.47
11,GGGCGCGC,0.507
12,CCCCGTTA,1.11
13,TAACGGGT,0.62
14,CGGCGCTC,1.71
15,TCGCGTAA,1.12
16,GACCGTTC,0.967
17,TTGCGCTG,2.05
18,GATCGGAG,0.0746
19,AAGCGGCC,0.573
20,CTACGACC,2.08
21,TCACGCGC,1.68
22,CGACGTCT,0.915
23,CGTCGGAC,0.827
24,AAGCGACC,0.643
25,CGTCGGGG,0.351

row,Sequence,relative CpG methylation activity
1,GCACGGAA,1.33
2,GCTCGTGG,0.0769
3,TCCCGTAT,0.643
4,TTACGTGC,1.07
5,ATGCGTAA,1.62
6,ACGCGTAG,0.648
7,CTCCGTAG,0.672
8,TGGCGATG,0.361
9,GGTCGCCA,0.94
10,CGGCGGTC,0.398
11,TTGCGACT,1.31
12,TAACGGGG,0.494
13,AACCGGCT,1.31
14,TAACGCAG,0.258
15,CAACGGCC,1.64
16,AAACGCGC,0.782
17,GAGCGGAA,0.6
18,AGTCGTAC,0.479
19,TGACGATT,0.68
20,TTGCGTCG,1.47
21,AAACGCAC,1.03
22,CTCCGCGC,1.79
23,TCTCGTCA,1.53
24,GTGCGCCT,2.43
25,CTGCGGTA,0.762

row,Sequence,relative CpG methylation activity
1,GGGCGTAC,0.5
2,GCCCGAAG,0.67
3,TAGCGAAG,0.299
4,AGACGACA,0.996
5,AGGCGATT,1.11
6,GATCGGAT,0.403
7,GCCCGTAA,1.41
8,CAGCGGTG,0.235
9,TGCCGCGT,0.517
10,CACCGTCT,1.41
11,GGGCGAGT,0.625
12,TTCCGAGC,2.27
13,AGACGGTG,0.376
14,CGGCGTTG,0.39
15,TTACGCCC,2.64
16,GAACGCGC,0.824
17,CACCGATC,1.28
18,GAGCGTTA,0.741
19,CTACGGAC,2.28
20,AGGCGAGG,0.379
21,ACCCGAGC,1.82
22,CGTCGTCG,0.989
23,TGCCGATT,0.424
24,TTCCGTCT,2.58
25,ATTCGAAT,0.851

row,Sequence,relative CpG methylation activity
1,TCTCGGAT,0.816
2,TATCGGCT,0.701
3,GGACGTCT,1.1
4,ATACGGGG,1.08
5,GTACGCTT,2.66
6,AGTCGGAG,0.137
7,ACACGTCA,2.19
8,AGACGGCG,0.744
9,AGGCGTGG,0.0781
10,TAACGTTT,0.714
11,CCACGCGA,1.12
12,GGTCGTCG,0.968
13,TAACGTTC,1.06
14,TTACGCAC,2.32
15,GCTCGCGT,0.862
16,GTCCGGTA,1.67
17,TGCCGTTA,0.5
18,GCGCGCAC,1.23
19,GTTCGTGC,0.783
20,AATCGCAT,0.525
21,CCGCGCCA,1.37
22,GCGCGTTC,1.27
23,AATCGCTA,0.779
24,GAACGTTG,0.245
25,AGGCGGGT,0.616

row,Sequence,relative CpG methylation activity
1,TGTCGTTC,0.867
2,AAACGAGA,0.431
3,ATTCGTTA,1.14
4,GCCCGGTA,1.05
5,TGGCGTGA,0.105
6,GGACGGTG,0.111
7,CAACGTCA,1.43
8,GACCGAAT,0.968
9,TCGCGTTC,1.24
10,AACCGCGT,0.604
11,GGGCGACG,0.851
12,GTTCGTTT,1.18
13,ACGCGCAA,0.908
14,ACACGACG,1.26
15,CGACGTAT,0.567
16,TCTCGAAG,0.588
17,CTACGGTA,1.45
18,CGGCGAAC,1.06
19,AGCCGGGA,0.357
20,CAACGTCT,0.833
21,CTACGAAC,2.15
22,TGACGGGA,0.551
23,GGACGAGA,0.605
24,ATACGCTG,2.12
25,ATTCGTAA,1.24

row,Sequence,relative CpG methylation activity
1,ATGCGACT,1.09
2,TCCCGCTC,1.82
3,GCACGACA,1.44
4,TTCCGGGG,0.556
5,AAACGCGT,0.522
6,TCCCGAGG,0.664
7,GAACGTTT,0.656
8,GATCGGCT,0.647
9,GGCCGTGA,0.44
10,TTACGGGC,2.31
11,ACTCGGAC,1.07
12,GTGCGTAG,0.947
13,ACTCGAGT,0.929
14,AGACGGTA,0.503
15,AAACGATG,0.235
16,ACACGGTA,1.27
17,CCACGCAA,1.52
18,ACGCGCAC,1.04
19,ACTCGCAC,1.39
20,TGTCGCGT,0.388
21,GCGCGTGC,0.431
22,ATTCGTCA,1.57
23,CGGCGATC,0.759
24,GTTCGTAA,1.5
25,TGGCGACA,0.699

row,Sequence,relative CpG methylation activity
1,ATCCGGGG,0.781
2,CCTCGGTT,0.723
3,CCACGGAT,1.32
4,TTCCGATA,2.01
5,AACCGGGA,0.529
6,CTGCGCTC,2.22
7,ACGCGTCT,1.25
8,GCACGGGC,1.47
9,AACCGTTG,0.662
10,CAACGACG,0.491
11,GGTCGACT,0.573
12,CAACGCCT,1.45
13,GCACGGTG,0.96
14,AGGCGAAT,0.772
15,TTACGGAT,1.72
16,TACCGTGC,0.457
17,CAGCGGAC,0.682
18,CGACGCAG,0.425
19,GCGCGCAG,0.591
20,TCCCGTAA,1.43
21,TGACGATG,0.323
22,TCTCGACA,0.767
23,GCACGAGT,1.2
24,ATGCGAAA,1.17
25,AGCCGCGC,0.879

row,Sequence,relative CpG methylation activity
1,GCTCGGGT,0.565
2,CGACGCCT,1.29
3,GTCCGTAG,0.889
4,AATCGACA,0.409
5,ACTCGTCG,1.41
6,CGCCGATT,0.629
7,TTGCGCGC,1.55
8,CTGCGTTA,1.2
9,CTTCGGCC,1.36
10,TTCCGCGA,1.52
11,CTCCGGAA,1.38
12,GGCCGCTT,1.75
13,CACCGGCC,1.28
14,AATCGGCA,0.377
15,TCTCGACG,0.648
16,AAACGGTC,0.701
17,GGCCGAAA,0.863
18,GGCCGCAC,0.912
19,GGGCGTGG,0.025
20,TCTCGTTT,0.688
21,GTGCGTTG,0.846
22,AACCGAAT,0.859
23,CTGCGAGC,1.61
24,GAACGCGT,0.528
25,GGCCGGTA,0.722

row,Sequence,relative CpG methylation activity
1,TGTCGCAT,0.692
2,GCACGTCT,1.34
3,CAACGAAC,0.954
4,GTGCGTAC,1.4
5,TTTCGGAA,1.03
6,CTGCGGAC,1.53
7,CCTCGTCG,1.57
8,GTGCGCAC,1.56
9,GGTCGCAT,0.672
10,TTCCGTAC,1.75
11,CTGCGCTT,2.3
12,GCACGCCT,2.25
13,CAACGTCG,1.23
14,ACGCGGTT,0.854
15,CGCCGGCA,0.789
16,TAGCGATT,0.606
17,ATTCGCGA,0.574
18,GACCGCAG,0.547
19,GTGCGCAT,1.41
